The values below come from PubChem BioAssay AID488969 (Vanderbilt High Throughput Screening Facility, 2010).

Whole data set: some 110,000 compounds, median “z-score” near -0.1, cut for the highest 2% near 2. The list shows a part of the results. Activity calls are given as the source filed them.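 The calls were made as follows: active = z-score in the third read window above 3 or below -3; inactive = the rest.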

The assay deals with Metabotropic glutamate receptor 8 (Rattus norvegicus) (UniProt P70579). Nature of the assay: rat mGluR8 modulators via GIRK flux, primary screen, cell-based, thallium flux, HTS (AID 488969). To be noted: HEK293 rat mGluR8, GIRK (G protein-gated inwardly rectifying potassium channel) thallium flux, FluoZin2; at 10 µM; stronger effect = higher value; submaximal glutamate (EC20) added with thallium.
Chain of UniProt P70579 (P70579 whole entry, looked up): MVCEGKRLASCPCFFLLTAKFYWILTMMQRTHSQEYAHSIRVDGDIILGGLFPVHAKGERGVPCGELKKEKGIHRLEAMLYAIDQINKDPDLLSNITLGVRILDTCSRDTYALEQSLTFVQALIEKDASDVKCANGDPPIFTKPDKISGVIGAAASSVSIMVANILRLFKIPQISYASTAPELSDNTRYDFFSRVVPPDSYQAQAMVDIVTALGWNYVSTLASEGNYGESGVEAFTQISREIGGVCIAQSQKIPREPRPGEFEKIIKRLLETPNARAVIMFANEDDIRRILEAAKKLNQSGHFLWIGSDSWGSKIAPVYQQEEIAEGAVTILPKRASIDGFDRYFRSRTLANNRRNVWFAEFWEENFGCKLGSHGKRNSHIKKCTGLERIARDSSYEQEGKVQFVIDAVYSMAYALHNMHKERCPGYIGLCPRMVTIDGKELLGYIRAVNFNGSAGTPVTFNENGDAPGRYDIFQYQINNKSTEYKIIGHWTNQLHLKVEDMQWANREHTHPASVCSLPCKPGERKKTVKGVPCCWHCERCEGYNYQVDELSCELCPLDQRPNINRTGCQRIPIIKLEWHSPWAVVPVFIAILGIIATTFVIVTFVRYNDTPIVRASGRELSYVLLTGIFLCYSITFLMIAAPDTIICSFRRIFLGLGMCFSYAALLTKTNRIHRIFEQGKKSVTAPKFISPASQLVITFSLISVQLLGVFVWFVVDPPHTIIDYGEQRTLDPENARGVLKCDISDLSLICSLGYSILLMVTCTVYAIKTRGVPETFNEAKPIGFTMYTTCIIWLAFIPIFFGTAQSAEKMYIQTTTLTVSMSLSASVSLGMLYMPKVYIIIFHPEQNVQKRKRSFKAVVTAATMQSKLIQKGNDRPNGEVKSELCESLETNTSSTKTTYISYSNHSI
For `CCOC(=O)N=S(=O)(Oc1ccc([N+](=O)[O-])cc1)c1ccc(Cl)cc1` (stereo not given), the z-score is -1.84.

In turn, `Cc1ccccc1C(=O)NC(=S)Nc1sc2c(c1C#N)CCC(C)C2` (stereo not given) showed a z-score of 1.82.

`O=C(Nc1ccc2c(c1)OCO2)c1nn(-c2ccccc2)c(=O)c2ccccc12` displayed a z-score of -0.0301.

`COc1ccccc1N1CCN(C(=O)/C=C/c2cccs2)CC1` showed a z-score of 0.139.

Compound `CCn1c(SCC(=O)c2ccccc2)nnc1-c1cc2cc(Br)ccc2o1` came in with a z-score of -0.172.

For `CCCc1c(O)c2ccccc2n(-c2ccccc2)c1=O`, the z-score is -0.342.

In the case of `CCCCNC(=O)CSc1nc2n[nH]c(C)c2c(=N)n1-c1cccc(Cl)c1C`, the z-score was found to be 0.0108.

For the compound `COc1ccc2oc(=O)c(C(=O)N3CCN(c4ccccc4)CC3)cc2c1`, the z-score is -0.433.

Compound `CCOc1cc(C2NC(=O)NC(O)(C(F)(F)F)C2C(=O)c2ccc(OC)cc2)ccc1O` (stereo not given) gave a z-score of 1.51.

Consider `Cc1cc(OCC(=O)Nc2ccc(F)c(F)c2)nc(C(C)C)n1`, for which the z-score stood at 0.156.

`O=c1oc(-c2ccccc2F)nc2c1cnn2-c1ccccc1` displayed a z-score of 0.0417.

`Cc1cccc(NC(=O)c2c(O)c3cccc4c3n(c2=O)CC4)c1` yielded a z-score of 0.0242.

In turn, `Cc1ccc(C(=O)N/N=c2\sc3ccccc3n2C)cc1` showed a z-score of 0.37.

`COc1c(F)c(F)c(C(=O)O)c(Nc2ccc(C)cc2)c1F` showed a z-score of -0.0424.

Turning to `Cc1cc(C)nc(NC(=O)CCC2CCCC2)c1`, the z-score was -0.0409.

`CC12Cc3ccc4ccccc4c3C=C1C[N+](C)(C)C2` (stereo not given) showed a z-score of -0.171.

The compound `CC1CCN(c2nc(CN3CCCCC3)nc3scc(-c4ccccc4)c23)CC1` gave a z-score of -0.0127.

In turn, `N#Cc1nc(-c2ccc(F)cc2)oc1NCc1ccccc1` registered a z-score of -0.026.

As to `O=C1CC(Sc2nnnn2C2CCCCC2)C(=O)N1c1ccccc1` (stereo not given), the z-score was -0.00221.

In the case of `CCOC(=O)CC1C(=O)NCCN1S(=O)(=O)c1ccccc1Cl` (stereo not given), the z-score was found to be 0.0105.

`CN(C)S(=O)(=O)c1cc(NC(=O)CN2CCN(c3ccccc3)CC2)ccc1Cl` displayed a z-score of -0.192.

`O=C(C1CCCN(S(=O)(=O)c2ccccc2)C1)N1CCN(c2ncccn2)CC1` (stereo not given) yielded a z-score of -0.0124.

`Cc1nc(N(C)C)ncc1C(=O)O`: the z-score amounted to 0.166.

`Fc1ccccc1CCNc1nnnn1-c1ccccc1` yielded a z-score of 0.648.

`CC(C)NC(=S)N/N=C/c1sc(N2CCCCC2)nc1-c1cccs1` showed a z-score of 0.593.

`CCc1cc(Br)ccc1NC(=O)C1CCCO1` (stereo not given) registered a z-score of -0.336.

`O=C(COc1ccc(Cl)cc1)Nc1cnn(Cc2c(Cl)cccc2Cl)c1` gave a z-score of -0.00257.

In the case of `Cc1cccc(NC(=O)CSc2nccn2C)c1`, the z-score turned out to be 0.299.

The compound `O=C1CCCC2=C1C(c1cccs1)Nc1ccc3ncccc3c12` (stereo not given) registered a z-score of 0.0208.

Regarding `CN(C)CCC(O)(c1ccccc1)c1ccccc1`, the z-score is -0.0232.

Regarding `CN(CCCNC(=O)C1CCC(=O)N1Cc1ccccc1Cl)c1ccccc1` (stereo not given), the z-score is -0.262.

`Cc1ccc(NC(=O)CC2SC(=NCC3CCCO3)NC2=O)cc1Cl` (stereo not given) came in with a z-score of -0.0211.

Take `O=S(=O)(c1ccccc1)N1CCSC1c1ccco1` (stereo not given): the z-score was -0.0642.

Compound `Cn1nc(C(=O)Nc2cccnc2)c2ccccc2c1=O` registered a z-score of -0.305.

Compound `C/C(=N\Nc1nccnc1Cl)c1ccc([N+](=O)[O-])cc1` came in with a z-score of -0.378.

`CC1(C)CC(=O)C2=C(C1)N(c1ccc(F)cc1)C(=O)NC2(C(F)(F)F)C(F)(F)F`: the z-score is -0.103.

Compound `COc1ccc(N2CCN(C(=O)CCN3C(=O)c4ccccc4S3(=O)=O)CC2)cc1` yielded a z-score of -0.374.

With `O=C(NCc1ccc2c(c1)OCO2)C1CCC(CNc2c(N3CCCCC3)c(=O)c2=O)CC1` (stereo not given), the z-score stood at 1.42.

With `CCOC(=O)N1CCN(CCC(=O)Nc2cc(OC)cc(OC)c2)CC1`, the z-score is -0.19.

For `COc1cc(S(=O)(=O)N(Cc2cccs2)C2CC2)ccc1-n1cnnn1`, the z-score is -0.419.

In turn, `CC1=C(C(N)=O)C(c2ccccn2)n2nc(-c3ccccc3Cl)nc2N1` (stereo not given) registered a z-score of -0.00632.

For the compound `Cc1ccc(NC(=O)c2ccccc2OCC(=O)c2ccccc2)cc1`, the z-score is -0.0627.

`C1CCC(NC2=NCCC2)CC1`: the z-score turned out to be 0.29.

Compound `S=C1NC(c2ccccc2)=NCN1c1ccc(Br)cc1` showed a z-score of 0.919.

Consider `O=C(C1CC(c2ccccc2O)=NO1)N1CCc2ccccc2C1` (stereo not given), for which the z-score was -0.961.

The compound `COc1ccccc1C(=O)n1nc(-c2ccco2)nc1N` yielded a z-score of 0.0838.

`CCCSc1nnc(CNC(=O)C23CC4CC(CC(C4)C2)C3)n1Cc1ccccc1`: the z-score was -0.148.

As to `Oc1ccc2ccccc2c1N=Nc1ccccn1`, the z-score was 2.19.

`Cc1nc2ccccc2nc(=O)c1NNc1ccccc1` yielded a z-score of -0.17.

Compound `C=CC(=O)Nc1ccc(Br)cc1` gave a z-score of 0.0392.

Take `C=CCN1C(=O)/C(=C\c2ccc(Cl)cc2)N=C1SCC(=O)NC1CCCCC1`: the z-score is -0.393.

Compound `COc1cccc(/C=N/NC(=O)CNC(=O)C2COc3ccccc3O2)c1O` (stereo not given) had a z-score of -0.314.

Turning to `Cc1ccsc1C1NC(=O)c2ccccc2N1` (stereo not given), the z-score was -0.0765.

For the compound `O=C(ONc1ccc(N=NC(=O)c2ccccc2O)cc1)c1ccccc1`, the z-score turned out to be 0.531.

`COc1ccc(NC(=O)Cn2cnc3c(cnn3-c3ccc(C)c(C)c3)c2=O)c(OC)c1` showed a z-score of -0.0912.

Take `c1ccc2c(N3CCCCC3)ncnc2c1`: the z-score is -0.0556.

The compound `CCOC(=O)Cn1ccc(O)c(Cc2ccc(Cl)cc2Cl)c1=O` displayed a z-score of 0.286.

`CCOc1ccc(-c2nc(N)ncc2-c2ccccc2)c(O)c1` displayed a z-score of 0.261.

As for `Cc1cccc(OCCNc2nc3c(c(=O)n(C)c(=O)n3C)n2C)c1`, the z-score amounted to 0.153.

With `COc1ccc(OC)c(NC(=O)CSc2ccc3ccccc3c2)c1`, the z-score was -0.708.

`Cc1cc(Cl)c(S(=O)(=O)Nc2ccc3c(c2)OCO3)cc1OCC(N)=O` showed a z-score of 0.115.

As for `C=CCNc1nc(NCCN2CCOCC2)nc(N2CCOCC2)n1`, the z-score turned out to be 0.497.

Compound `CCCn1c(=O)c2ccccc2n2c(SCc3cc(=O)oc4ccc5ccccc5c34)nnc12` yielded a z-score of -0.654.

Take `O=C(NC(=S)Nc1ccccc1N1CCOCC1)c1ccco1`: the z-score is active: 9.71.

As for `CCOc1ccc(-c2cc(C)n3nc(C(N)=O)cc3n2)cc1`, the z-score is active: 5.02.

As to `O=C1OCC/C1=C\c1ccccc1O`, the z-score turned out to be 0.146.

`CC1CCN(c2c(NCC3CCC(C(=O)N4CCCCC4)CC3)c(=O)c2=O)CC1` (stereo not given): the z-score is -0.344.

Regarding `Cc1ccc(S(=O)(=O)N2CCSC2C(=O)O)cc1` (stereo not given), the z-score was -0.174.

Regarding `O=C(Nc1cccc2nsnc12)c1ccc(F)cc1`, the z-score was determined as 0.651.

In turn, `CCOc1ccc(C2C=C(c3ccccc3)Nc3ncnn32)cc1` (stereo not given) displayed a z-score of -1.27.

For `Cc1ccc(F)cc1NC(=O)C12CC3CC(C1)CC(n1cnc([N+](=O)[O-])n1)(C3)C2`, the z-score is 0.29.

`COc1ccc(NC(=O)c2cn(-c3ccccc3)nc2-c2cc3ccccc3o2)cc1` yielded a z-score of -0.453.

`CCCCOC(=O)Nc1ccc(C(N)=O)cc1` yielded a z-score of 0.507.

Consider `Cc1ccccc1NC(=O)CSC1=NCCN1`, for which the z-score was -0.181.

In turn, `Brc1ccc(-c2cnnc(N3CCCC3)n2)cc1` came in with a z-score of 0.0522.

In the case of `COc1cccc(CNC(=O)Cn2nc(-c3ccc(Cl)cc3)ccc2=O)c1`, the z-score is -0.52.

`COc1ccc(-c2cc(C)nc(SCC(=O)c3cccc([N+](=O)[O-])c3)n2)cc1` had a z-score of -0.325.

Consider `CSCCC(C(=O)OCC(=O)c1ccc(C)c(C)c1)N1C(=O)c2cc(Cl)c(Cl)cc2C1=O` (stereo not given), for which the z-score worked out at 0.00574.

The compound `CCc1c(C(=O)NC2CCCCC2)[nH]c(C)c1C(C)=O` displayed a z-score of -0.364.

Take `CC1=C(C#N)CCC(=O)N1Cc1c(C)cc(C)cc1C`: the z-score was -0.0955.

The compound `Cc1cc(N)ccc1S(C)(=O)=O` displayed a z-score of 0.106.

In turn, `Cc1ccc(N2C(=O)C3C4CC(=O)C(c5ccccc54)C3C2=O)cc1C` (stereo not given) registered a z-score of 0.0205.

As for `CCC(C)NC(=O)/C=C/c1cccs1` (stereo not given), the z-score turned out to be 0.151.

Take `O=C(O)CCC(=O)Nc1ccccc1C(=O)NCc1ccccc1`: the z-score was -0.155.

For the compound `Cc1cc(C)n2c3c(c(C#N)c2n1)CC(C)(C)OC3`, the z-score amounted to 0.277.

`O=C1c2ccccc2NC(c2ccccc2Br)N1CCCN1CCOCC1` (stereo not given) displayed a z-score of -0.503.

`CCn1c(NCc2c[nH]c3ccccc23)nc2ccccc21` displayed a z-score of -0.139.

In the case of `CCOC(=O)C1CCN(Cc2nc3ccccc3c(=O)n2-c2ccc(OCC)cc2)CC1`, the z-score is -0.482.

As for `CC(=O)Nc1sc2c(c1C(N)=O)CCC2`, the z-score came out at 0.293.

In turn, `CCOc1ccc(C(=O)Nc2ccc(-c3cc4ccccc4oc3=O)c(C)c2)cc1[N+](=O)[O-]` yielded a z-score of 0.0272.

Compound `COc1ccc(C(CC(=O)NCc2ccccc2)Sc2n[nH]c(-c3ccc(Cl)cc3)n2)cc1` (stereo not given) gave a z-score of -0.139.

For the compound `COc1ccc(Cl)cc1Nc1nc(NCCO)nc(N2CCCC2)n1`, the z-score was -0.194.

Consider `CCOc1ccc(S(=O)(=O)N2c3ccccc3CC2C)cc1` (stereo not given), for which the z-score is -0.694.

With `CCN(CC)C(=O)CSc1nnc([C@@H](NC(=O)OC(C)(C)C)C(C)C)o1`, the z-score is 0.525.

`CCN(CC)c1ccc(C(=O)NC(=S)N2CCN(Cc3ccc4c(c3)OCO4)CC2)cc1`: the z-score was active: 10.

The compound `Cc1ccc(-c2nnc(SCC(=O)Nc3ccccc3F)o2)cc1` came in with a z-score of -0.425.

As for `CC(C)(C)C(=O)COC(=O)c1ccc(O)cc1`, the z-score was -0.915.

With `CCCCCCC1CCC(c2nc(-c3ccncc3)no2)CC1` (stereo not given), the z-score was -0.112.

In turn, `COC(=O)c1cn(C)c2ccc(S(=O)(=O)N3CCCCC3)cc2c1=O` displayed a z-score of -0.17.

The compound `CCOC(=O)Cc1csc(NC(=S)NC(=O)CC(C)C)n1` gave a z-score of 1.27.

Compound `CC(=O)c1ccc(OCCn2cnc3ccccc32)cc1` yielded a z-score of 1.01.

`C(=N\Nc1nc2ccccc2s1)/c1cccs1` returned a z-score of -0.0364.

`CC(C)NC(=O)c1sc2nc(-c3cccs3)cc(-c3cccs3)c2c1N`: the z-score is -0.223.

The compound `CC(C)(C)C(=O)Nc1ccc(C(=O)NCc2cccnc2)cc1` gave a z-score of 1.3.

In turn, `CN1C2CCC1/C(=C\c1ccccc1)C(=O)/C2=C\c1ccccc1` came in with a z-score of -0.182.

On to `CCOc1nc(Nc2ccc(OC)cc2)nc(OCC)n1`, for which the z-score is -1.62.

The compound `Cn1cnc([N+](=O)[O-])c1Nc1ccc(O)cc1` returned a z-score of -0.174.

`COc1ccc(Oc2coc3cc(OC(=O)/C=C/c4ccc(F)cc4)ccc3c2=O)cc1`: the z-score is -0.00429.

For `O=C(CN1CCN(Cc2ccccc2)CC1)Nc1ccc(Cl)cn1`, the z-score was -0.158.

As to `O=C(CSc1ccccc1C(=O)O)NC1CCCCCCC1`, the z-score is -0.178.

Turning to `CC(Sc1nncs1)C(=O)Nc1ccc(Cl)cn1` (stereo not given), the z-score is -0.278.

Take `Cc1cc(=O)oc2cc(NC(=O)C3COc4ccccc4O3)ccc12` (stereo not given): the z-score was 0.156.

`Cc1nnc(SCCn2c(N3CC(C)CC(C)C3)nc3c2c(=O)n(C)c(=O)n3C)s1` (stereo not given) gave a z-score of -0.0272.

On to `COc1cc(/C=N/NC(=O)C(Cc2c[nH]c3ccccc23)NC(=O)OCc2ccccc2)cc([N+](=O)[O-])c1O` (stereo not given), for which the z-score is -0.505.

In turn, `O=C1c2ccccc2C(=O)N1CN(C(=O)COc1ccc(Cl)cc1Cl)c1cccc(F)c1` displayed a z-score of -0.145.
